Assay results reported in the supplement of paper PMC4967469.
IC50 is the fitted dose that halves viability relative to control wells, and lower means more sensitive; a limit (>, <) means that the fit lies beyond the doses tested. AUC, from the same fit, is the share of area under the viability curve across the 256-fold dose range; the more sensitive the line, the further below 1. Where the top dose is marked as inferred, it was derived from the fitted curves, not read from the paper. For some of these results: An entry number marks a drug with two screens in the source, which often give different values.

Experiments:
Assay in all cases: Viability of human cancer cell lines after 72 h of drug (GDSC screen)
BIRB 0796 = compound: Cc1ccc(-n2nc(C(C)(C)C)cc2NC(=O)Nc2ccc(OCCN3CCOCC3)c3ccccc23)cc1 [BIRB 0796]; conditions: top dose 10 µM; top dose inferred
Procedure: (§1)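 Human cancer cell lines in 384-well plates, medium with 10% serum, drug for 72 h over a 256-fold dose range (nine 2-fold or five 4-fold steps up to the top dose). Adherent lines were fixed and stained with the nucleic acid dye Syto60, suspension lines read with resazurin; signal relative to control wells, capped at 0 and 100%. One two-parameter sigmoid per drug and line, fitted in a mixed model over all curves with the slope shared within a line.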

VX-702 = compound: NC(=O)c1ccc(N(C(N)=O)c2c(F)cccc2F)nc1-c1ccc(F)cc1F [VX-702]; conditions: top dose 2 µM; top dose inferred
Procedure: as §1

Olaparib = compound: O=C(c1cc(Cc2n[nH]c(=O)c3ccccc23)ccc1F)N1CCN(C(=O)C2CC2)CC1 [Olaparib]
Procedure: as §1

BMS-536924 = compound: Cc1cc(N2CCOCC2)cc2[nH]c(-c3c(NC[C@@H](O)c4cccc(Cl)c4)cc[nH]c3=O)nc12 [BMS-536924]; conditions: top dose 4 µM; screen: GDSC drug entry 1091; top dose inferred
Procedure: as §1

Wee1 inhibitor 681640 = compound: O=C1NC(=O)c2c1c(-c1ccccc1Cl)cc1[nH]c3ccc(O)cc3c21 [Wee1 inhibitor 681640]; conditions: top dose 2 µM; top dose inferred
Procedure: as §1

SB-525334 = compound: Cc1cccc(-c2[nH]c(C(C)(C)C)nc2-c2ccc3nccnc3c2)n1 [SB-525334]; conditions: top dose 20 µM; top dose inferred
Procedure: as §1

Shikonin = compound: CC(C)=CC[C@@H](O)C1=CC(=O)c2c(O)ccc(O)c2C1=O [Shikonin]; conditions: top dose 16 µM; top dose inferred
Procedure: as §1

[1] = top dose 5 µM, screen: GDSC drug entry 1017, top dose inferred
[2] = top dose 10 µM, screen: GDSC drug entry 1495

Cell Line | AUC (BIRB 0796) | IC50 (BIRB 0796) [µM] | AUC (VX-702) | IC50 (VX-702) [µM] | AUC (Olaparib; [1]) | IC50 (Olaparib; [1]) [µM] | AUC (Olaparib; [2]) | IC50 (Olaparib; [2]) [µM] | AUC (BMS-536924) | IC50 (BMS-536924) [µM] | AUC (Wee1 inhibitor 681640) | IC50 (Wee1 inhibitor 681640) [µM] | AUC (SB-525334) | IC50 (SB-525334) [µM] | AUC (Shikonin) | IC50 (Shikonin) [µM]
BALL-1 (B-cell leukaemia, suspension) | 0.997 | > 10 | 0.997 | > 2 | 0.988 | > 5 | 0.973 | > 10 | 0.997 | > 4 | 0.995 | > 2 |  |  |  | 
BT-549 (breast, adherent) | 0.932 | > 10 | 0.977 | > 2 |  |  |  |  | 0.976 | > 4 | 0.962 | > 2 |  |  |  | 
CAL-54 (kidney, adherent) | 0.959 | > 10 |  |  |  |  | 0.981 | > 10 | 0.891 | > 4 | 0.868 | > 2 | 0.979 | > 20 | 0.565 | 1.54
CL-40 (large intestine, adherent) | 0.976 | > 10 | 0.973 | > 2 | 0.947 | > 5 | 0.925 | > 10 | 0.855 | > 4 | 0.966 | > 2 |  |  |  | 
CML-T1 (chronic myeloid leukaemia, suspension) | 0.992 | > 10 | 0.989 | > 2 | 0.915 | > 5 | 0.768 | 3.15 | 0.963 | > 4 | 0.967 | > 2 |  |  |  | 
COR-L321 (lung, suspension) | 0.983 | > 10 | 0.977 | > 2 | 0.971 | > 5 | 0.961 | > 10 | 0.988 | > 4 | 0.987 | > 2 | 0.956 | > 20 |  | 
CRO-AP2 (B-cell lymphoma, suspension) | 0.914 | > 10 | 0.914 | > 2 | 0.958 | > 5 | 0.948 | > 10 | 0.86 | 2.66 | 0.976 | > 2 |  |  |  | 
ChaGo-K-1 (non-small cell lung carcinoma, adherent) | 0.907 | > 10 |  |  |  |  | 0.926 | > 10 | 0.878 | > 4 | 0.962 | > 2 | 0.955 | > 20 | 0.451 | 0.718
GAMG (glioma, adherent) | 0.964 | > 10 |  |  |  |  | 0.951 | > 10 | 0.938 | > 4 | 0.855 | 1.72 | 0.748 | 6.7 | 0.584 | 1.72
HCC1806 (breast, adherent) | 0.964 | > 10 |  |  |  |  | 0.883 | 9.23 | 0.958 | > 4 | 0.875 | 1.69 | 0.979 | > 20 | 0.508 | 1.05
HLE (liver, adherent) | 0.988 | > 10 |  |  |  |  | 0.983 | > 10 | 0.915 | > 4 | 0.946 | > 2 | 0.963 | > 20 | 0.23 | 0.174
IGROV-1 (ovary, adherent) | 0.953 | > 10 | 0.972 | > 2 | 0.973 | > 5 | 0.899 | > 10 | 0.878 | > 4 | 0.894 | > 2 |  |  |  | 
JEKO-1 (B-cell lymphoma, suspension) | 0.987 | > 10 | 0.932 | > 2 |  |  |  |  | 0.852 | 2.9 | 0.927 | > 2 |  |  |  | 
KARPAS-1106P (B-cell lymphoma, suspension) | 0.985 | > 10 | 0.936 | > 2 | 0.938 | > 5 | 0.979 | > 10 | 0.976 | > 4 | 0.98 | > 2 |  |  |  | 
KMS-11 (myeloma, suspension) | 0.99 | > 10 | 0.978 | > 2 | 0.967 | > 5 | 0.986 | > 10 | 0.704 | 0.851 | 0.979 | > 2 | 0.954 | > 20 |  | 
LN-405 (glioma, adherent) | 0.969 | > 10 |  |  | 0.95 | > 5 | 0.965 | > 10 | 0.953 | > 4 | 0.975 | > 2 | 0.964 | > 20 | 0.668 | 3.32
MDA-MB-157 (breast, adherent) | 0.918 | > 10 |  |  |  |  | 0.97 | > 10 | 0.948 | > 4 | 0.877 | > 2 | 0.979 | > 20 | 0.453 | 0.744
MEL-HO (melanoma, adherent) | 0.984 | > 10 | 0.972 | > 2 | 0.976 | > 5 | 0.913 | > 10 | 0.96 | > 4 | 0.92 | > 2 |  |  |  | 
MHH-CALL-2 (B-cell leukaemia, suspension) | 0.996 | > 10 | 0.997 | > 2 | 0.994 | > 5 | 0.997 | > 10 | 0.997 | > 4 | 0.987 | > 2 |  |  |  | 
MKN1 (stomach, adherent) | 0.944 | > 10 |  |  |  |  | 0.978 | > 10 | 0.943 | > 4 | 0.953 | > 2 | 0.944 | > 20 | 0.386 | 0.479
MM1S (myeloma, suspension) | 0.945 | > 10 | 0.9 | > 2 |  |  |  |  |  |  | 0.98 | > 2 |  |  |  | 
